# Some of the results follow.
# Assays:
# Assay in all cases: glycan array binding signal (z-score within array); higher = stronger binding
# Details in all cases: glycan notation: IUPAC condensed, linker removed
# Gal(a1-2)Gal = target: Gal(a1-2)Gal
# In short: (§1)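 Glycan array data came from 3228 arrays in the Consortium for Functional Glycomics database, and only arrays with an available protein sequence were kept. Glycan names were put into IUPAC-condensed notation, and columns mapping to the same glycan were averaged. The binding signal is a within-array Z-score, averaged across arrays of one protein sequence run at different concentrations or buffers and across linkers. A negative Z-score can be read as non-binding.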
# Gal(a1-3)Gal = target: Gal(a1-3)Gal
# In short: as §1
# Gal(a1-3)Gal(b1-3)GlcNAc = target: Gal(a1-3)Gal(b1-3)GlcNAc
# In short: as §1
# Gal(a1-3)Gal(b1-4)Glc = target: Gal(a1-3)Gal(b1-4)Glc
# In short: as §1
# Gal(a1-3)Gal(b1-4)GlcNAc = target: Gal(a1-3)Gal(b1-4)GlcNAc
# In short: as §1
# [1] = target: Gal(a1-3)Gal(b1-4)[Fuc(a1-3)]GlcNAc
# In short: as §1
# [2] = target: Gal(a1-3)Gal(b1-4)[Fuc(a1-3)]GlcNAc(b1-2)Man(a1-3)[Gal(a1-3)Gal(b1-4)[Fuc(a1-3)]GlcNAc(b1-2)Man(a1-6)]Man(b1-4)GlcNAc(b1-4)GlcNAc
# In short: as §1
# Gal(a1-3)GalNAc = target: Gal(a1-3)GalNAc
# In short: as §1
# [3] = target: Gal(a1-3)[Gal(a1-4)]Gal(b1-4)GlcNAc
# In short: as §1
# Gal(a1-4)Gal(b1-4)Glc = target: Gal(a1-4)Gal(b1-4)Glc
# In short: as §1
# Gal(a1-4)Gal(b1-4)GlcNAc = target: Gal(a1-4)Gal(b1-4)GlcNAc
# In short: as §1
# [4] = target: Gal(a1-4)Gal(b1-4)GlcNAc(b1-3)Gal(b1-4)Glc
# In short: as §1
# Gal(a1-4)GlcNAc = target: Gal(a1-4)GlcNAc
# In short: as §1
# Gal(a1-6)Glc = target: Gal(a1-6)Glc
# In short: as §1
# Gal(b1-2)Gal = target: Gal(b1-2)Gal
# In short: as §1
# Gal(b1-3)Gal = target: Gal(b1-3)Gal
# In short: as §1
# Gal(b1-3)Gal(b1-4)GlcNAc = target: Gal(b1-3)Gal(b1-4)GlcNAc
# In short: as §1
# [5] = target: Gal(b1-3)Gal(b1-4)GlcNAc(b1-2)Man(a1-3)[Gal(b1-3)Gal(b1-4)GlcNAc(b1-2)Man(a1-6)]Man(b1-4)GlcNAc(b1-4)GlcNAc
# In short: as §1
# Gal(b1-3)GalNAc = target: Gal(b1-3)GalNAc
# In short: as §1
# [6] = target: Gal(b1-3)GalNAc(a1-3)[Fuc(a1-2)]Gal(b1-4)Glc
# In short: as §1
# [7] = target: Gal(b1-3)GalNAc(a1-3)[Fuc(a1-2)]Gal(b1-4)GlcNAc
# In short: as §1
# [8] = target: Gal(b1-3)GalNAc(b1-3)Gal(a1-4)Gal(b1-4)Glc
# In short: as §1
# [9] = target: Gal(b1-3)GalNAc(b1-4)Gal(b1-4)Glc
# In short: as §1
# [10] = target: Gal(b1-3)GalNAc(b1-4)[Neu5Ac(a2-3)]Gal(b1-4)Glc
# In short: as §1
# Gal(b1-3)GlcNAc = target: Gal(b1-3)GlcNAc
# In short: as §1
# [11] = target: Gal(b1-3)GlcNAc(b1-2)Man(a1-3)[Gal(b1-3)GlcNAc(b1-2)Man(a1-6)]Man(b1-4)GlcNAc(b1-4)GlcNAc
# In short: as §1
# [12] = target: Gal(b1-3)GlcNAc(b1-2)Man(a1-3)[Gal(b1-3)GlcNAc(b1-2)Man(a1-6)]Man(b1-4)GlcNAc(b1-4)[Fuc(a1-6)]GlcNAc
# In short: as §1
# [13] = target: Gal(b1-3)GlcNAc(b1-3)Gal(b1-3)GlcNAc
# In short: as §1
# [14] = target: Gal(b1-3)GlcNAc(b1-3)Gal(b1-4)Glc
# In short: as §1
# [15] = target: Gal(b1-3)GlcNAc(b1-3)Gal(b1-4)GlcNAc
# In short: as §1
binder,measurement,setting,value
"GALT1 115 D492A (Arabidopsis thaliana), Q8L7F9 (protein) DPMRGSHHHHHHGMASMTGGQQMGRDLYDDDDKSRLQKPYITAAASVVVTPNTTLPMEWLRITLPDFMKEARNTQEAISGDDIAVVSGLFVEQNVSKEEREPLLTWNRLESLVDNAQSLVNGVDAIKEAGIVWESLVSAVEAKKLVDVNENQTRKGKEELCPQFLSKMNATEADGSSLKLQIPCGLTQGSSITVIGIPDGLVGSFRIDLTGQPLPGEPDPPIIVHYNVRLLGDKSTEDPVIVQNSWTASQDWGAEERCPKFDPDMNKKVDDLDECNKMVGGEINRTSSTSLQSNTSRGVPVAREASKHEKYFPFKQGFLSVATLRVGTEGMQMTVDGKHITSFAFRDTLEPWLVSEIRITGDFRLISILASGLPTSEESEHVVDLEALKSPTLSPLRPLDLVIGVFSTANNFKRRMAVRRTWMQYDDVRSGRVAVRFFVGLHKSPLVNLELWNEARTYGDVQLMPFVDYYSLISWKTLAICIFGTEVDSAKFIMKTDDAAFVRVDEVLLSLSMTNNTRGLIYGLINSDSQPIRNPDSKWYISYEEWPEEKYPPWAHGPGYIVSRDIAESVGKLFKEGNLKMFKLEDVAMGIWIAELTKHGLEPHYENDGRIISDGCKDGYVVAHYQSPAEMTCLWRKYQETKRSLCCREW",glycan array binding signal (z-score),Gal(a1-2)Gal,-0.019
same,glycan array binding signal (z-score),Gal(a1-3)Gal,-0.435
same,glycan array binding signal (z-score),Gal(a1-3)Gal(b1-3)GlcNAc,-0.247
same,glycan array binding signal (z-score),Gal(a1-3)Gal(b1-4)Glc,-0.239
same,glycan array binding signal (z-score),Gal(a1-3)Gal(b1-4)GlcNAc,-0.154
same,glycan array binding signal (z-score),[1],-0.279
same,glycan array binding signal (z-score),[2],-0.272
same,glycan array binding signal (z-score),Gal(a1-3)GalNAc,-0.092
same,glycan array binding signal (z-score),[3],-0.215
same,glycan array binding signal (z-score),Gal(a1-4)Gal(b1-4)Glc,-0.334
same,glycan array binding signal (z-score),Gal(a1-4)Gal(b1-4)GlcNAc,-0.293
same,glycan array binding signal (z-score),[4],-0.312
same,glycan array binding signal (z-score),Gal(a1-4)GlcNAc,-0.109
same,glycan array binding signal (z-score),Gal(a1-6)Glc,-0.243
same,glycan array binding signal (z-score),Gal(b1-2)Gal,-0.078
same,glycan array binding signal (z-score),Gal(b1-3)Gal,-0.321
same,glycan array binding signal (z-score),Gal(b1-3)Gal(b1-4)GlcNAc,-0.205
same,glycan array binding signal (z-score),[5],-0.074
same,glycan array binding signal (z-score),Gal(b1-3)GalNAc,0.238
same,glycan array binding signal (z-score),[6],-0.137
same,glycan array binding signal (z-score),[7],0.06
same,glycan array binding signal (z-score),[8],-0.124
same,glycan array binding signal (z-score),[9],-0.128
same,glycan array binding signal (z-score),[10],-0.275
same,glycan array binding signal (z-score),Gal(b1-3)GlcNAc,-0.25
same,glycan array binding signal (z-score),[11],0.93
same,glycan array binding signal (z-score),[12],-0.357
same,glycan array binding signal (z-score),[13],-0.236
same,glycan array binding signal (z-score),[14],-0.267
same,glycan array binding signal (z-score),[15],-0.352

# Reference: the supplement of paper PMC8728848
